# Data as given in the supplement of paper PMC3334620.
# Over roughly 33,000 sequences, “E-score (-0.5 to 0.5)” has its median near -0.043; the highest 2% begin near 0.37. The list shows a part of the results.
# Molecular target: T1, Upc2 (UniProt Q12151)
# T1 sequence: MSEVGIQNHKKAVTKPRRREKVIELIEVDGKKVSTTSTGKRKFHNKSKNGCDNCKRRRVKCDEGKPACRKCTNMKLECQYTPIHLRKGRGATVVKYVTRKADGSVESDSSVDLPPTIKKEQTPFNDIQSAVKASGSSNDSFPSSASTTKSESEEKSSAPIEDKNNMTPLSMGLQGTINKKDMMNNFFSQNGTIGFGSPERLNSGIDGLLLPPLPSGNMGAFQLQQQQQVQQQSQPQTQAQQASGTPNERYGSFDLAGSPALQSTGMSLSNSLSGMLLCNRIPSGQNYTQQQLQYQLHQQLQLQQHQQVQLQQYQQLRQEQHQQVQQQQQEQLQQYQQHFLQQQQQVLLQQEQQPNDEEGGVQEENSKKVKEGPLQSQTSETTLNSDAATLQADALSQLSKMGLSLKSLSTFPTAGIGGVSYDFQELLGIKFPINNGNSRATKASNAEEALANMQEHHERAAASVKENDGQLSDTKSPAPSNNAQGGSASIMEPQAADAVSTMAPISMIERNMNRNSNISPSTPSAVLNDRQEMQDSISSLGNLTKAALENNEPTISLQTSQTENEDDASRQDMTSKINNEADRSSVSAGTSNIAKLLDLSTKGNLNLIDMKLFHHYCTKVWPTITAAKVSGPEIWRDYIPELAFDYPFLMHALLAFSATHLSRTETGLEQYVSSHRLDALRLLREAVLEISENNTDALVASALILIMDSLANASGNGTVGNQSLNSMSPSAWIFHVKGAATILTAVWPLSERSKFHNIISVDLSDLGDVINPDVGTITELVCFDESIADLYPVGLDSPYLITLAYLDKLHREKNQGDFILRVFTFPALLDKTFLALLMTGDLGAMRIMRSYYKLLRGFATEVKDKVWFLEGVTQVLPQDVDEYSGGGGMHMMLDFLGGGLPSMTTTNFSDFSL
# Test: PBM E-score (8-mer binding enrichment) (E-score (-0.5 to 0.5)); higher = stronger / more preferred TF binding; most listed sequences are background and not binding sites
# Details: protein concentration: 200 nM; construct: GST-full length
# Outline: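 Using PURExpress in vitro transcription/translation, GST-tagged yeast transcription factors were made in full-length or DNA-binding-domain form. These were applied at about 100-200 nM to double-stranded universal all-10-mer Agilent arrays, and bound protein was detected with fluorescent anti-GST. Scans were normalised with masliner before the Universal PBM Analysis Suite assigned E-scores to ungapped eight-base words pooled with their reverse complements.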
row,Sequence,PBM E-score
1,ACAAAATC,-0.0623
2,ACTTGATG,-0.175
3,GGGAATCA,-0.215
4,CAAAGCCG,0.06
5,ACAAAAGT,-0.0314
6,TAAAGGCA,-0.0239
7,AAGGGACG,-0.144
8,CCGTGTCC,-0.0488
9,ACGTATCA,0.254
10,CCAGGTAA,0.0585
11,AACTAATA,0.128
12,CAGCGCCG,-0.0432
13,CCCCTTCG,-0.0374
14,GCACATAA,0.0187
15,CCAGGTAC,0.151
16,AACCTGCC,-0.0992
17,CGGAGAAA,0.158
18,CAGCAGAC,-0.0929
19,TATGTGAA,-0.0221
20,GCCTAACC,0.0492
21,CAAAGTCC,-0.11
22,TAGAGTAA,0.0614
23,AGATCAAG,0.0695
24,AAGGTTCG,0.0908
25,GTTGGCAA,0.0589

row,Sequence,PBM E-score
1,TCCGTTAA,0.264
2,CGGTTCCC,0.0304
3,GGGACAAA,-0.18
4,CTCCAGAC,0.0472
5,TAGGTTAA,-0.118
6,CAACCGCC,-0.167
7,CTTATGTC,-0.0966
8,CTATAGCC,-0.175
9,CGGTGCAC,0.0462
10,ACTATTCA,-0.0687
11,AAGCGCTT,0.0453
12,CCGTATAC,0.475
13,CCGAGACA,-0.0494
14,ATCCGGTG,0.083
15,CATGGCCC,-0.168
16,AGGGGCCC,-0.251
17,GCACAAGC,-0.0365
18,CTAATTAG,0.0658
19,ATTCAGAA,-0.144
20,AGAGCTAC,-0.203
21,CGGCACTC,-0.264
22,CCGAAGGA,-0.0603
23,CACGATCC,0.17
24,GACTTTCA,-0.187
25,GACAACCC,0.0735

row,Sequence,PBM E-score
1,AGCGGATG,0.0282
2,ATACACGG,0.115
3,TGATAGCA,0.0194
4,CTGTCCGC,0.0788
5,AAATGATA,0.12
6,ATGTAAAT,-0.0283
7,CCTCTTGA,-0.204
8,GGCCTGTA,-0.196
9,GTGGGGAA,-0.0782
10,AAGGCCAT,0.0801
11,CTGCGCAC,-0.147
12,GTGTGTAA,-0.0869
13,ACGATCGT,0.438
14,AGAACCAC,-0.128
15,CTCAATTC,0.128
16,CTCACGAG,0.0684
17,AGAGGTTC,0.0141
18,ATCATGCA,-0.266
19,GGTGTTAA,0.0966
20,GCCGGTCA,-0.19
21,GCGAAACA,0.0326
22,ACCATTGC,-0.00631
23,CGAGTTAC,0.185
24,GCTAAGCA,-0.159
25,CGTTGTAA,0.0415

row,Sequence,PBM E-score
1,GTAAGATA,0.15
2,ACCCTGGC,-0.206
3,ATATGGTA,0.158
4,AACGTAGT,0.171
5,CACATTGA,-0.0226
6,GGACGAAC,0.0508
7,CCGAATAC,0.228
8,AAATAATG,0.0432
9,CAACTTTA,0.104
10,GAAACGGC,0.187
11,CCAAGCAC,-0.21
12,GCCCGAGA,-0.175
13,GATCACAA,-0.0358
14,ATATACAA,-0.0498
15,TATCAAAA,-0.0205
16,ACTACATC,-0.156
17,CTCGTCAC,0.0127
18,CTAACCTC,-0.0576
19,AGGCCCAT,-0.117
20,GAGGCCCC,-0.229
21,AAAGGAAC,0.182
22,GCGCCCAA,-0.00323
23,TCTATAGA,-0.316
24,CCGAGAGC,0.154
25,GCATGGCA,-0.138

row,Sequence,PBM E-score
1,CACCGCAC,-0.0191
2,GCGAAACC,0.0361
3,ACGGGTAA,0.174
4,CAGCTTGG,-0.272
5,ACCGCGTC,0.0567
6,TATCGTAA,0.384
7,AAAAGCAG,-0.146
8,GGTGATAC,0.0232
9,ATTAGCAA,0.00693
10,AAAGGTTA,-0.0321
11,ACCGCCGC,0.135
12,CCAGATGA,-0.189
13,TAGGTCCA,-0.0314
14,ATTATCAC,-0.0604
15,TATCTTAA,-0.0702
16,AATACGTA,0.196
17,ATAAGGAC,0.00647
18,CAACGGTA,0.0169
19,ACACGTGC,-0.0929
20,ACGGGAGC,0.222
21,CACAGCAG,-0.0662
22,CATGAACG,0.301
23,AGTCTCAC,-0.104
24,GGGGGCGA,-0.119
25,CTGCGTAC,0.271

row,Sequence,PBM E-score
1,CCCAAGCC,-0.0899
2,AATCGATT,0.128
3,CAGCCACA,-0.249
4,CTGGCACC,-0.198
5,AAACTATC,0.0931
6,ACATCATC,-0.127
7,CTGGGTGC,-0.106
8,GGCCAATA,-0.0758
9,ACCGGCGA,0.0232
10,CTCTATAA,-0.00484
11,ATAAGCAC,0.0464
12,CATATAGG,-0.181
13,TACTGACA,-0.028
14,ACTGTGAT,-0.122
15,TAGCGGCA,-0.0553
16,GGGAGGAA,-0.119
17,AAACCAGC,-0.123
18,GAAGTGGA,-0.0244
19,CGATTCCG,0.0502
20,CTCGTAGA,0.404
21,AGCTTACA,0.111
22,ATGAATGA,-0.119
23,GGAAAGCC,-0.133
24,CCCATGAG,-0.311
25,GTCCCTTA,0.0853

row,Sequence,PBM E-score
1,ATTGGCCA,-0.117
2,TGGTGCAA,-0.196
3,GGAGTATA,-0.09
4,GACCTCCA,-0.16
5,TCCGGCGA,-0.0332
6,CCGGACAA,-0.0455
7,AACGCGGC,0.319
8,CGGTCTTC,-0.117
9,GTGATCGA,0.0617
10,GTACGCCA,0.196
11,CTGACTAC,-0.237
12,ACTAAACG,0.463
13,GAGAGCTA,0.0363
14,AACGACGA,0.454
15,GAAGATGA,-0.155
16,ACCGTACA,0.39
17,ACTCAACG,0.224
18,ACGGCGCT,0.124
19,ACTTAAGG,-0.103
20,ATAGGTGG,-0.00379
21,ATTGACCC,0.0573
22,AACAAGGG,-0.101
